The campaign covered roughly 310,000 compounds. About 14,000 (4.5%) showed an effect of 50% or more. Effects have a minus sign here. Some of the results follow.
Target: human ether-à-go-go-related gene (hERG) potassium channel (human, UniProt Q12809)
Experiment: primary screen, population patch clamp on CHO cells stably expressing hERG
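Further: peak tail current of the secondary pulse compared with the same well before compound.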

human ether-à-go-go-related gene (hERG) potassium channel, sequence (Q12809 whole entry, looked up): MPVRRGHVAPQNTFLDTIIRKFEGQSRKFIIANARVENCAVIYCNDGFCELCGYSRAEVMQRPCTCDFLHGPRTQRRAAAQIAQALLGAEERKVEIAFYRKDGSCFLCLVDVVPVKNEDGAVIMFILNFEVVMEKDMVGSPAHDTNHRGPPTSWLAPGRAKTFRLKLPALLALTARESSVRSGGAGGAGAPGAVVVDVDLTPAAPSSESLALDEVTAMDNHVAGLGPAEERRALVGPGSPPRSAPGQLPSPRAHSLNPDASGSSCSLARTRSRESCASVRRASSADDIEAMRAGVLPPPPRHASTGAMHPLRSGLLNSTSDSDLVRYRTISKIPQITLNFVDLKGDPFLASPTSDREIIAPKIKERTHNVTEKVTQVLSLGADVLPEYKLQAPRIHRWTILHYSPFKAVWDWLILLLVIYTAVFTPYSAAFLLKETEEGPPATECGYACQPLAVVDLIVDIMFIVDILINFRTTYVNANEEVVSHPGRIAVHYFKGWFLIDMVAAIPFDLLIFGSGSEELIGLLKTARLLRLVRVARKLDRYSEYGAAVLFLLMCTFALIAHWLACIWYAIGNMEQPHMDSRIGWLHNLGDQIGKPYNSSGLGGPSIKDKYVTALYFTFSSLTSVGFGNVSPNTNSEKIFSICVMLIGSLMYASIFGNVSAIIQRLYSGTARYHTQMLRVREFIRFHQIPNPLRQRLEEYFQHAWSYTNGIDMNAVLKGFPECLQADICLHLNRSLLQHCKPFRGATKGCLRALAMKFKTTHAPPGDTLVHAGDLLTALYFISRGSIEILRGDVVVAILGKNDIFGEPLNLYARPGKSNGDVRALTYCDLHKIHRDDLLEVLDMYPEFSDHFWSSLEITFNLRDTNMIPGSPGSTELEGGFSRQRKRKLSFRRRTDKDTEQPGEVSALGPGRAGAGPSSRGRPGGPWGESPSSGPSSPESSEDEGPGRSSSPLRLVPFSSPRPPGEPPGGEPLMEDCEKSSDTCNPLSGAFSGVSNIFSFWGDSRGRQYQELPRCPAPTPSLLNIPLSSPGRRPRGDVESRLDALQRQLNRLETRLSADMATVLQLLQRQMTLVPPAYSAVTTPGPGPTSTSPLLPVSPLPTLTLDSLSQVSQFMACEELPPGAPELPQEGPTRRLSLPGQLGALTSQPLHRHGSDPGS

SMILES | hERG current change (%, negative = inhibition) at 10uM
O=C(N/N=C/c1cccnc1)c1ccccc1Cl | 14.2%
O=C(COC(=O)CSc1nnc(-c2ccc(Cl)cc2)o1)Nc1cc(Cl)cc(Cl)c1 | 16.1%
CC(C)(C)C1CCc2onc(C(=O)Nc3cccnc3)c2C1 (stereo not drawn) | -28.6%
COc1cc(C(=O)OCC#N)ccc1OCc1c(C)noc1C | 2.86%
Cc1cccc(C)c1NCc1nnc(SCC(=O)Nc2nc(-c3ccccc3)cs2)n1-c1ccccc1 | -4.69%
COc1ccccc1CNC(=O)Cn1cccc1C(=O)c1ccccc1C | -2.95%
Cc1cccc(NS(=O)(=O)c2ccc(C(=O)N3CCN(c4ccccc4O)CC3)cc2)c1C | 11.7%
COCCOC(=O)c1c(C)nc(SCC(=O)Nc2cccc3ccccc23)c(C#N)c1-c1ccco1 | 0.409%
CCOC(=O)/C=C/C(=O)Nc1nccs1 | 17.7%
COc1ccc(-c2cc3nc4ccccc4n3c(N)c2C#N)cc1 | 2.63%
CC(OC(=O)c1cc(=O)c2ccccc2o1)C(=O)Nc1ccc(N(C)C)cc1 (stereo not drawn) | 4.51%
c1cncc(-c2nc(NCC3CCCO3)c3ccccc3n2)c1 (stereo not drawn) | 7.02%
CCc1cc2c(=O)n(CC)c(SC(C)C(=O)Nc3c(C)n(C)n(-c4ccccc4)c3=O)nc2s1 (stereo not drawn) | -19.1%
CC1CC(C)CN(C(=O)CCNS(=O)(=O)c2cccs2)C1 (stereo not drawn) | -9.51%
CCc1cc(=O)oc2cc(C)cc(OCC(=O)NCCc3c[nH]c4ccccc34)c12 | 8.45%
CC1(C)CC(=O)C(C=NCCCO)=C(O)C1 | 5.07%
C/C(=N\NC(=O)c1ccc(N/N=C(\C)c2ccc(O)cc2)cc1)c1ccc(O)cc1.O=S(=O)(O)O | -15.8%
CCc1nnc(NC(=O)CCC(=O)NC2CCCCC2)s1 | 15.8%
CCOC(=O)c1sc(NC(=O)c2ccc(C)s2)cc1C | 5.51%
Cc1ccc(CS(=O)Cc2ccc(C(=O)NCc3ccccc3Cl)o2)cc1 (stereo not drawn) | -13.8%
CCn1c(O)c(C=Nc2ccc(N3CCOCC3)cc2)c(=O)n(CC)c1=S | -20.5%
Cc1cc(C(=O)N/N=C\C(Br)=C\c2ccccc2)c(C)o1 | 14.8%
Cn1c(CNC(=O)c2ccco2)nnc1SCC(=O)Nc1ccc(Cl)cc1 | -26.1%

SMILES | hERG current change (%, negative = inhibition) at 10uM
COc1ccccc1-n1c(-c2ccco2)n[nH]c1=S | 15.8%
O=C(C1CCCN(Cc2ccccc2C(F)(F)F)C1)N1CCCCC1.O=C(O)C(=O)O (stereo not drawn) | -7.75%
CCOc1cc(/C=C(/C#N)c2nc3ccccc3[nH]2)ccc1OCc1ccc(C(=O)O)o1 | 3.75%
CC(C)(C)NC(=O)C(c1ccccc1F)N(Cc1ccco1)C(=O)c1csnn1 (stereo not drawn) | 0.31%
CCOC(=O)N1CCN(C(=O)CSc2nnc(Cc3ccccc3)o2)CC1 | -5.08%
Cc1nnc(NC(=O)CSc2ncnc3scc(-c4ccccc4)c23)s1 | 23.9%
CC1=C(c2ccc(Cl)cc2)[N+](=O)C(C)(C)N1[O-] | 10.9%
C/C(CC1(O)C(=O)N(Cc2ccccc2)c2ccccc21)=N\O (stereo not drawn) | 8.18%
O=C(CCNS(=O)(=O)c1cccc2nsnc12)NCc1ccc(F)cc1 | -7.32%
CC(=O)Nc1ccc(Nc2ccc3c4c(cc(=O)n3C)-c3ccccc3C(=O)c24)cc1 | 9.74%
O=c1c2ccccc2nc(CNCC2CCCO2)n1-c1ccc(F)cc1 (stereo not drawn) | 3.21%
Cn1c(SCC(=O)c2ccccc2)nnc1-c1ccccn1 | -8.9%
CCn1c(=O)c2c3c(sc2n2c(=S)[nH]nc12)CCC3 | 25.6%
Cc1nnc(NC(=O)c2ccc3c(c2)C(=O)N(CCC(C)C)C3=O)s1 | 0.0544%
CC(C)(C)NC(=O)CN1CCC(NC(=O)C23CC4CC(CC(C4)C2)C3)CC1 | 28.1%
Cc1cc(S(=O)(=O)Nc2ccc3ccccc3c2)c(C)s1 | -0.508%
CCC(C)c1ccc(N(C(=O)c2ccco2)C(C(=O)NC2CCCC2)c2cccnc2)cc1 (stereo not drawn) | -15.4%
O=C(CCn1nnc(-c2cccs2)n1)N1CCc2ccccc2C1 | -20.1%
Cn1cc(C(=O)N/N=C/C2=C(N3CCOCC3)C(=C\c3ccccc3)/CC2)ccc1=O | 0.839%
Cc1cc(C)n(-c2ccc3cccc(NS(C)(=O)=O)c3n2)n1 | 26.3%
CCc1cc(N2CCOCC2)cc2c1[nH]c1ccccc12 | 6.57%
Cc1ccc(C(=O)NC(=S)Nc2ccc(CN3CCOCC3)cc2)cc1 | 2.56%

From PMC4336329 (PLoS ONE, 2015)
